Results on one molecule are retold here after PMC10405735 (Frontiers in Immunology, 2023).

This assay has as its target T1, hCXCL12, unlabeled (human, UniProt P48061 in part).
T1 construct: CXCL12, human; also called X12
Kind of assay: flow cytometry on cells; competition binding at 4°C: 300.19 cells expressing mGPR182 or hGPR182 with 3 nM fluorescent chemokine and increasing concentrations of its unlabeled counterpart, 45 min. The following applies: one partner purified. (In general: Flow cytometry measures light scatter and fluorescence of single cells or particles in a stream.)

B1: human GPR182 (hGPR182), expressed from hGPR182 T2A GFP in 300.19 pre-B cells (receptor, UniProt O15218 1-404, looked up)
chain: MSVKPSWGPGPSEGVTAVPTSDLGEIHNWTELLDLFNHTLSECHVELSQSTKRVVLFALYLAMFVVGLVENLLVICVNWRGSGRAGLMNLYILNMAIADLGIVLSLPVWMLEVTLDYTWLWGSFSCRFTHYFYFVNMYSSIFFLVCLSVDRYVTLTSASPSWQRYQHRVRRAMCAGIWVLSAIIPLPEVVHIQLVEGPEPMCLFMAPFETYSTWALAVALSTTILGFLLPFPLITVFNVLTACRLRQPGQPKSRRHCLLLCAYVAVFVMCWLPYHVTLLLLTLHGTHISLHCHLVHLLYFFYDVIDCFSMLHCVINPILYNFLSPHFRGRLLNAVVHYLPKDQTKAGTCASSSSCSTQHSIIITKGDSQPAAAAPHPEPSLSFQAHHLLPNTSPISPTQPLTPS
notes: GPR182, human; Expressed fused via a self-cleaving T2A peptide to GFP (backbone pME-Cas9-T2A-GFP, Addgene 63155); split post-translationally; also called ACKR5 (proposed); source: 300.19 mouse pre-B cells, stably transfected, on cells
Usually Kd stands for a measure of binding affinity in units of concentration. In turn, B1 had a dissociation constant (Kd) of 50 nM.
